Measurements: the supplement of paper PMC7726561
Whole data set: some 1,400 sequences, median “thermal melting temperature (Tm) of peptide-HLA complex” near 60, cut for the lowest 2% near 45. The list shows a part of the results.

B1: unnamed (peptide)
chain: RPYSFFTKL
B2: unnamed (peptide)
chain: ILRTAGTAL
B3: unnamed (peptide)
chain: TPSPRLAL
B4: unnamed (peptide)
chain: APTPPGLRNSL
B5: unnamed (peptide)
chain: VPTAKFQEL
B6: unnamed (peptide)
chain: LPRVADILTQL
B7: unnamed (peptide)
chain: WPHPPGPFL
B8: unnamed (peptide)
chain: YPARYRPTAL
B9: unnamed (peptide)
chain: LPASPAHQL
B10: unnamed (peptide)
chain: RPALPVSYL
B11: unnamed (peptide)
chain: GVRPFGVSL
B12: unnamed (peptide)
chain: YIDEGRLVL
B13: unnamed (peptide)
chain: IPISLHTSL
B14: unnamed (peptide)
chain: QPIGHPDAL
B15: unnamed (peptide)
chain: GPRAPGPSLL
B16: unnamed (peptide)
chain: RPYTNKVITL

Target: HLA-B*07:02
Assay: thermal melting temperature (Tm) of peptide-HLA complex; higher = more thermostable pHLA complex
Conditions: C1R-B*07:02
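Further: cell lysates heated 10 min at 37–73 °C, remaining pHLA pulled down with pan-class I antibody, peptides quantified by DIA-MS versus 37 °C, Tm where half the complex is lost.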

First: B1
Second: B2
The thermal melting temperature of the first is higher: 59.3 °C for the first, 56.4 °C for the second.

Compared with B3, B4 is lower in thermal melting temperature: 60 °C for the first, 59.6 °C for the second.

Going from B5 to B6, the thermal melting temperature rises from 55.4 °C to 61.7 °C.

Going from B7 to B8, the thermal melting temperature falls from 62.3 °C to 58.2 °C.

Compared with B9, B10 is higher in thermal melting temperature: 60.7 °C for the first, 63.6 °C for the second.

Compared with B11, B12 is lower in thermal melting temperature: 57.4 °C for the first, 51.6 °C for the second.

Compared with B13, B14 is lower in thermal melting temperature: 61.3 °C for the first, 55.2 °C for the second.

Compared with B15, B16 is lower in thermal melting temperature: 62 °C for the first, 58.1 °C for the second.
